Results taken from publication PMC9911399, “Two distinct binding modes provide the RNA-binding protein RbFox with extraordinary sequence specificity”.
Substitutions are numbered along the chain they refer to; changes in the protein carry UniProt numbers. The list shows a part of the results.

T1: RBFOX1 RRM RbFoxmut (Fox-RRM*) (Homo sapiens, UniProt Q9NWB1 109-208, R118D;E147R;N151S;E152T)
T1 sequence: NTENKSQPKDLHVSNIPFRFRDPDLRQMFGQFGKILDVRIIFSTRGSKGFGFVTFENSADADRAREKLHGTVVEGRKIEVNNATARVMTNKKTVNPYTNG

B1: CUGGAGA (DNA:RNA)
RNA: GGGAGACCGGAAUUCAGAUUGUCCCUGGAGAUUAAAUCCCGUCGUAGCCACCA
DNA 1: CAATCTGAATTCCGGTCTCCC
DNA 2: TGGTGGCTACGACGGGATT
B2: CCCCCUA (DNA:RNA)
RNA: B1 RNA with U26C, G27C, G28C, A29C, G30U
DNA 1: CAATCTGAATTCCGGTCTCCC
DNA 2: TGGTGGCTACGACGGGATT
B3: GGCCCAA (DNA:RNA)
RNA: B1 RNA with C25G, U26G, G27C, G28C, A29C, G30A
DNA 1: CAATCTGAATTCCGGTCTCCC
DNA 2: TGGTGGCTACGACGGGATT
B4: GAGUAGU (DNA:RNA)
RNA: B1 RNA with C25G, U26A, G28U, A31U
DNA 1: CAATCTGAATTCCGGTCTCCC
DNA 2: TGGTGGCTACGACGGGATT
B5: GCUAAGU (DNA:RNA)
RNA: B1 RNA with C25G, U26C, G27U, G28A, A31U
DNA 1: CAATCTGAATTCCGGTCTCCC
DNA 2: TGGTGGCTACGACGGGATT
B6: UGCACAG (DNA:RNA)
RNA: GGGAGACCGGAAUUCAGAUUGUCCUGCACAGUUAAAUCCCGUCGUAGCCACCA
DNA 1: CAATCTGAATTCCGGTCTCCC
DNA 2: TGGTGGCTACGACGGGATT
B7: CUAUAUA (DNA:RNA)
RNA: B1 RNA with G27A, G28U, G30U
DNA 1: CAATCTGAATTCCGGTCTCCC
DNA 2: TGGTGGCTACGACGGGATT
B8: UGAGUAG (DNA:RNA)
RNA: B6 RNA with C27A, A28G, C29U
DNA 1: CAATCTGAATTCCGGTCTCCC
DNA 2: TGGTGGCTACGACGGGATT
B9: CACCUGU (DNA:RNA)
RNA: B1 RNA with U26A, G27C, G28C, A29U, A31U
DNA 1: CAATCTGAATTCCGGTCTCCC
DNA 2: TGGTGGCTACGACGGGATT

The binders below were run against T1, RBFOX1 RRM RbFoxmut (Fox-RRM*) (assay: EMSA; HiTS-Eq, 1 nM pool, 10 min; buffer printed only for the single-RNA assays: 10 mM Tris pH 7.5, 150 mM NaCl, 3.4 mM EDTA, 0.001% NP-40, 30 C). Details: tags: His6 N-terminal (pET28a); label: 5' 32P.
Procedure, shortened: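 Purified RbFox RRM, wild type or mutant, was incubated for 10 min in 50 µL with 1 nM of a 5′-radiolabelled RNA pool carrying 7 randomized nucleotides, whose flanks were annealed to DNA oligonucleotides, over a series of increasing protein concentrations. Unbound RNA was resolved on 8% native PAGE, cut out, reverse-transcribed, barcoded by PCR and sequenced on an Illumina HiSeq 2500. Relative association constants were derived from changes in read counts for each RNA species versus the control reaction and normalised to the cognate motif.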

Binder	binding signal
B1	0.0675 KA relative to UGCAUGU
B2	0.032 KA relative to UGCAUGU
B3	0.0682 KA relative to UGCAUGU
B4	0.157 KA relative to UGCAUGU
B5	0.134 KA relative to UGCAUGU
B6	0.0603 KA relative to UGCAUGU
B7	0.118 KA relative to UGCAUGU
B8	0.121 KA relative to UGCAUGU
B9	0.0998 KA relative to UGCAUGU
